# The RNAGym collection of RNA variant scans (doi:10.7554/elife.90254)
# Read counts are not given, so values of variants with three or more changes are uncertain.
# B1: OR4K15 (parent)
# chain: GUUAACGGUCAUAGGCCAUGGAAACUAGGAGCACCAUUUCGCUGCCAGUGAAGAAAUGAACAAAGAAAAUCUGGGCCAGGCAGGCAUCAAAAGAAAUAGUCUUGCGCUCAACCAGAAAGUCUGUAAUCAUUUUAAGGGUA
# Variants of: B1
# Assay: self-cleavage, relative activity (ratio to wild type); higher = more cleavage; in vitro, sequencing; the parent is a self-cleaving ribozyme
row,Variant,self-cleavage
1,GUUAACGGUCGUAGGCCAUGGAAACUAGGAGCACCAUUUCGCUGCCAGCGAAGAAAUGAACAAAGAAAAUCUGGGCCAGGCAGGCAUCAAAAGAAAUAGUCUUGCGCUCAACCAGAAAGUCUGUAAUCAUUUUAAGGGUU [A11G U49C A140U],0.4
2,GUUAACGGUCGUAGGCCAUGGAAACCAGGAACACCAUUUCGCUGCCAGUGAAGAAAUGAACAAAGAAAAUCUGGGCCAGGCAGGCAUCAAAAGAAAUAGUCUUGCGCUCAACCAGAAAGUCUGUAAUCAUUUUAAGGGUA [A11G U26C G31A],0.59
3,GUUAACGGUCGUAGGCCAUGGAAACUAGGAGCACCAUUUCGCUGCCAGCGAAGAAAUGAACAAAGAAAAUCUGGGCCAGGCAGGCAUCAAAAGAGAUAGUCUUGCGCUCAACCAGAAAGUCUGUAAUCAUUUUAAGGGUA [A11G U49C A95G],0.71
4,GUUAACGGUCGUAGGCCAUGGAAACUAGGAGCACCAUUUCGCUGCCAGUGAAGAAACGAACAAAGAAAAUCUGGGCCAGGCAGGCAUCAAAAGAAAUAGUCUUGCGCUCGACCAGAAAGUCUGUAAUCAUUUUAAGGGUA [A11G U57C A110G],0.16
5,GUUAACGGUCGUAGGCCAUGGAAACUAGGAGCACCAUCUCUCUGCCAGUGAAGAAAUGAACAAAGAAAAUCUGGGCCAGGCAGGCAUCAAAAGAAAUAGUCUUGCGCUCAACCAGAAAGUCUGUAAUCAUUUUAAGGGUA [A11G U38C G41U],1.77
6,GUUAACGGUCGUAGGCCAUGGAAACUAGGAGCACCAUUUCGCAGCCGGUGAAGAAAUGAACAAAGAAAAUCUGGGCCAGGCAGGCAUCAAAGGAAAUAGUCUUGCGCUCAACCAGAAAGUCUGUAAUCAUUUUAAGGGUA [A11G U43A A47G A92G],1.24
7,GUUAACGGUCGUAGGCCAUGGAAACUAGGAGCACCAUUUCGCCGCCAGUGAAGAAAUGAACAAAGAAAAUCUGGGCCAGGCAGGCAUCAAAAGAGAUAGUCUUGCGCUCAACCAGAAAGUCUGUAAUCAUUUUAAGGGUA [A11G U43C A95G],1.64
8,GUUAACGGUCGUAGGCCAUGGAAACUAGGAGCACCAUAUCGCUGCCAGUGAAGAAAUGAACAAAGAAAAUCUGGGCCAGGCAGGCAUCAAAAGAAAUAGCCUUGCGCUCAACCAGAAAGUCUGUAAUCAUUCUAAGGGUA [A11G U38A U100C U132C],1.56
9,GUUAACGGUCGUAGGCCAUGGAAACUAGGAGCACCAUUUCGCCGCCAGUGAAGAAAUGAACAAGGAAAAUCUGGGCCAGGCAGGCAUCAAGAGAAAUAGUCUUGCGCUCAACCAGAAAGUCUGUAAUCAUCUUAAGGGUA [A11G U43C A64G A91G U131C],0.53
10,GUUAACGGUCGUAGGCCAUGGAAACUAGGAGCACCAUUUCGCAGCCAGUGAAGAAAUGAACAAAGAAAAUCUGGGCCAGGCAGGCACCAAAAGAAAUAGUCUUGCGCUCAACCAGAAAGUCUGUAAUCAUUUUAAGGGUA [A11G U43A U87C],1.49
11,GUUAACGGUCGUAGGCCAUGGAAACUAGGAGCACCAUUCCGCUGCCAGUGAAGAAAUGAACAAUGAAAAUCUGGGCCAGGCAGGCAUCAAAAGAAAUAGUCUUGCGCUCAACCAGAAAGUCUGUAAUCAUUUUAAGGGUA [A11G U39C A64U],0.98
12,GUUAACGGUCGUAGGCCACGGAAACUAGGAGCACCAUUUCGCUGCCAGCGAAGAAGUGAACAAAGAAAAUCUGGGCCGGGCAGGCAUCAAUAGAAAUAGUCUUGCGCUCAACCAGAAAGUCUGUAAUCAUUUUAAGGGUA [A11G U19C U49C A56G A78G A91U],0.45
13,GUUAACGGUCGUAGGCCAUGGAAACUAGGAGCACCAUUUCGCUGCCAGCGAAGAAAUGAACAAAGAAAAUCUGGGCCAGGCAGGCGUCAAAAGAAAUAGUCUUGCGCUCAACCAGAAAGUCUGUAAUCAUUUUAAGGGUG [A11G U49C A86G A140G],0.62
14,GUUAACGGUCGUAGGCCAUGGAAACUAGGAGCACCAUUUCGCUGCCAGUGAAGAAACGAACAAAGAAAAUCUGGGCCAGGCAGGCAUCAAAAGUAAUAGUCUUGCGCUCAACCAGAAAGUCUGUAAUCAUUUUAAGGGUA [A11G U57C A94U],0.94
15,GUUAACGGUCGUAGGCCAUGGAAACUAGGAGCACCACUUCGCUGCCAGUGAAGAAAUGAACAAAGGAAAUCUGGGCCAGGCAGGCAUCAAAAGAAAUAGUCUUGCGCUCAACCAGAAAGUCUGUAAUCAUCUUAAGGGUA [A11G U37C A66G U131C],1.38
16,GUUAACGGUCGUAGGCCAUGGAAACUAGGAGCACCAUUACGCCGCCAGUGAAGAAAUGAGCAAAGAAAAUCUGGGCCAGGCAGGCAUCAAAAGAAAUAGUCUUGUGCCCAACCUGAAAGUCUGUAAUCAUUUUAAGGGUA [A11G U39A U43C A60G C105U U108C A114U],0.01
17,GUUAACGGUCGUAGGCCAUGGAAACUAGGAGCACCAUUUCGCUGCCAGUGAAGAAACGAACAAAGAAAAUCUGGGCCAGGCAGGCAUCAAAAGAAAUAGUCUUGCGCCCCACCAGAAAGUCUGUAAUCAUUUUAAGGGUA [A11G U57C U108C A110C],0.01
18,GUUAACGGUCGUAGGCCAUGGAAACUAGGAGCACCAUUUCGCUGCCAGUGAAGAAAUGAACAAAGAAAAUCUGGGCCAGGCAGGCACCAAAAGAAAUAGACUUGCGCUCAACCAGAAAGUCUGUAAUCAUUUUAAGGGUA [A11G U87C U100A],0.86
19,GUUAACGGUCGUAGGCCAUGGAAACUAGGAGCACCAUUUCGCCGCCAGUGAAGAAAUGGACAAAGGAAAUCUGGGCCAGGCAGGCAUCAAAAGAAAUAGUCUUGCGCUCAACCAGAAAGUCUGUAAUCAUUUUAAGAGUA [A11G U43C A59G A66G G137A],1.21
20,GUUAACGGUCGUAGGCCAUGGAAACUAGGAGCACCAUUUCGCUGCCAGAGAAUAAAUGAACAAGGAAAAUCUGGGCCAGGCAGGCACCAAAAGAAAUAGUCUUGCGCUCAACCAGAAAGUCUGUAUUCAUUUUAAGGGUA [A11G U49A G53U A64G U87C A126U],1.23
21,GUUAACGGUCGUAGGCCAUGGAAACUAGGAGCACCAUUUCGCUGCCAGUGAAGAAACGAACAAAGAAAAUCUGGGCCAGGUAGGCAUCAAAAGAAAUAGUCUUGCGCUCAACCAGAAAGUCUGUAAUCAUUUUAAGGGUA [A11G U57C C81U],0.28

row,Variant,self-cleavage
1,GUUAACGGUCGUAGGCCAUGGAAACUAGGAGCACCAUUUCGCUGCCAGUGAAGAAAUGAACAAAGAAAACCUGGGCCAGGCAGGCAUCAAAAGAAAUAGUCUUGCGCUCAGCCAGAAAGUCUGGAAUCAUUUUAAGGGUA [A11G U70C A111G U124G],0.02
2,GUUAACGGUCGUAGGCCAUGGAAACUAGGAGCACCAUUUCGCCGCCAGUGAAGAAAUGAACAAAGAAAAUCUGGGCCAGGCAGGCAUCAAAAGAAAUAGUCUUGCGCUCAACCAGAAAGUCUGUAAUCGUUUUAAGGGUA [A11G U43C A129G],0.45
3,GUUAACGGUCGUAGGCCAGGGAAACUAGGAGCACCAUUUCGCUGCCAGUGAAGAAAUGAGCAAAGAAAAUCUGGGCCAGGCAGGCAUCAAAAGAAAUAGUCUUGCGCUCAACCAGAAAGUCUGUAAUCAUUUUAAGGGUA [A11G U19G A60G],0.94
4,GUUAACGGUCGUAGGCCAUGGAAACUAGGAGCACCAUUUCGCUGCCAGCGAAGAAAUGAACAAAGAAAAUCUGGGCCAGGCAGGCAUCAAAAGAAAUAGUCUUGCGCUCAACCAGAAAGUCUGUGAUCAUUCUAAGGGUA [A11G U49C A125G U132C],0.89
5,GUUAACGGUCGUAGGCCAUGGAAACUAGGAGCACCAUUUCGCAGCCAGUGAAGAAAUGUACAAAGAAAAUCUGGGCCAGGCAGGCAUCAAAAGAAAUAGUCUUGCGCUCAACCGGAAAGUCUGUAAUCAUUUUAAGGGUA [A11G U43A A59U A114G],0.8
6,GUUAACGGUCGUAGGCCAUGGAAACAAGGAGCACCAUUUCGCUGCCAGUGAAGAAAUGAACAAAGAAAAUCUGGGCCAGGCAGGAAUCAAAAGAAAUAGUCUUGCGCUCAACCAGAGAGUCUGUAAUCAUUUUAAGGGUA [A11G U26A C85A A117G],1.64
7,GUUAACGGUCGUAGGCCAUGGAAACUAGGAGCACCACUUCGCUGCCAGUGAAGAAAUGAACAAAGAAAAUCUGGGCCAGGCAGGCAUCAAGAGAAAUAGUCUUGCGCUCAACCAGAAAGUCUGUAAUCAUUUUAAGGGUA [A11G U37C A91G],0.68
8,GUUAACGGUCGUAGGCCAUGGAAACUAGGAGCACCAUUCCGCUGCCAGUGAGGAAAUGAACAAAGAAAAUCUGGGCCAGGCAGGCAUCAAAAGAAAUAGUCUUGCGCUCAACCAGAAAGUCUGUAAUCAUUUUAAGGGUA [A11G U39C A52G],0.62
9,GUUAACGGUCGUAGGCCAUGGAAACUAGGAGCACCACUUCGCUGCCAGUGAAGAAAUGAACAAAGAAAAUCUGGGCCAGGCAGGCUUCAAAAGAAAUAGUCUUGCGCUCAACCAGAAAGUCUGUAAUCAUUUUAAGGGUA [A11G U37C A86U],1.05
10,GUUAACGGUCGUAGGCCAUGGAAACUAGGAGCACCAUUUCGCGGCCAGUGAAGAAGUGAACAAAGAAGAUCUGGGCCAGGCAGGCAUCACAAGAAAUAGUCUUGCGCUCAACCAGAAAGUCUGUAAUCAUUUUAAGGGUA [A11G U43G A56G A68G A90C],0.83
11,GUUAACGGUCGUAGGCCAUGGAAACUAGGAGCACCAUUCCGCUGCCAGUGAAGAAAUGAACGAAGAAAAUCUGGGCCAGGCAGGCAUCAAAAGAAAUAGUCUUGCGCUCAACCAGAAAGUCUGUAAUCAUUUUAAGGGUA [A11G U39C A62G],0.51
12,GUUAACGGUCGUAGGCCAUGGAAACUAGGAGCACCAUUCCGCUGCCAGUGAAGAAAUGAACGAAGAAAAUCUGGGCCAGGCAGGCAUCAAAAGAGAUAGUCUUGCGCUCAACCAGAAAGUCUGUAAUCAUUUUAAGGGUA [A11G U39C A62G A95G],1.72
13,GUUAACGGUCGUAGGCCAUGGAAACUAGGAGCACCAUUUCGCUGCCAGUGAAGAAAUGAACAAAGAAAAUCUGGGCCAGGCAGGCAACAAAAGAAAUAGUCUUGCGCUCAACCAGAAAGUCUGUGGUCAUUUUAAGGGUA [A11G U87A A125G A126G],0.31
14,GUUAACGGUCGUAGGCCAUGGAAACUAGGAGCACCAUUACGCUGCCAGUGAAGAAAUGAACAAAGAAAAUCUGGGCCAGGCAGGCAUCAAAAGAAAUAGUCUUGCGCUCAACCAGAAAGUCUGUGAUCAUUUUAAGGGUA [A11G U39A A125G],0.51
15,GUUAACGGUCGUAGGCCAUGGAAACUAGGAGCACCACUUCGCUGCCAGUGAAGAAAUGAACAAAGAAAAUCUGGGCCAGGCAGGCAUCAAGAGAAAUAGUCUUGCGCUCAACCUGAAAGUCUGUAAUCAUUUUAAGGGUA [A11G U37C A91G A114U],0.05
16,GUUAACGGUCGUAGGCCAUGGAAACUAGGAGCACCAUCUCGCUGCCAGUGAAGAAAUGAACAAAGAAAACCUGGGCCAGGCAGGCAUCAAAAGCAAUAGUCUUGCGCUCAACCAGAAAGUCCGUAAUCAUUUUAAGGGUA [A11G U38C U70C A94C U122C],0.41
17,GUUAACGGUCGUAGGCCAUGGAAACUAGGAGCACCAUAUCGCUGCCAGUGGAGAAAUGAACAAAGAAAAUCUGGGCCAGGCAGGCAUCAAAAGAAAUAGUCUUGCGCUCAACCAGUAAGUCUGUAAUCAUUUUAAGGGUA [A11G U38A A51G A116U],0.95
18,GUUAACGGUCGUAGGCCAUGGAAACUAGGAGCACCAUUCCGCUGCCAGUGAAGAAAUGAACAAGGAAGAUCUGGGCCAGGCAGGCAUCAAAAGAAAUAGUCUUGCACUCAACCAGAAAGUCUGUAAUCAUUUUAAGGGUA [A11G U39C A64G A68G G106A],0.02
19,GUUAACGGUCGUAGGCCAUGGAAACUAGGAGCACCAUUCCGCUGCCAGUGAAGAAAUGAACAAAGAAAAUCUGGGCCGGGCAGGCAUCAAAAUAAAUAGUCUUGCACUCAACCAGAAAGUCUGUAAUCAUUUUAAGGGUA [A11G U39C A78G G93U G106A],0.07
20,GUUAACGGUCGUAGGCCAUGGAAACUAGGAGCACCAUCUCGCUGCCAGUGAAGAAAUGAACAAGGAAAAUCUGGGCCAGGCAGGCAUCAAAAGAAAUAGUCUUGCGCUCAACCAGAAAGUCAGUAAUCAUUUUAAGGGUA [A11G U38C A64G U122A],0.42
